Reference: PubChem BioAssay AID1508624 (National Center for Advancing Translational Sciences (NCATS), 2021)
The campaign covered roughly 48,000 compounds. About 120 (0.25%) were called active. About 4% were inconclusive and are not listed. Calls follow the shape of the dose curve; as a rule, active = well fitted activation curve with a large enough effect; inconclusive = small, poorly fitted or top-dose-only effect, or another doubt; inactive = no such curve, though single readings can be large or run the other way. The list shows a part of the results.

Test: Primary qHTS for Identification of Small Molecule Activators of Huntingtin-Antisense Promoter Activity; also: nearly all actives have a fitted effect of over 55% in size
Conditions: HEK293 HTT-AS promoter firefly luciferase reporter (activity 0% = vehicle and -100% = no light), 24 h; series mostly up to 57.5 µM; activity change, positive = activation: at the top concentration
Procedure, shortened: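 Quantitative HTS used concentration series of up to 57.5 uM final on HEK293 luciferase reporter cells, 24 h at 37 degrees C. Readout was Dual-Glo firefly luminescence.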

SMILES | activity change, positive = activation
COc1ccc(NC(=O)Cn2c(=O)n(-c3ccc(OC)cc3)c(=O)c3ccc(C(=O)NCc4ccc(C)cc4)cc32)cc1 | inactive: -41.8%
COc1cc(C(=O)NCCc2csc3nc(-c4ccccc4C)nn23)cc(OC)c1OC | inactive: -25.4%
Cc1cc(OCC(=O)N(Cc2ccc(N(C)C)cc2)C2CCS(=O)(=O)C2)cc(C)c1Cl (stereo not given) | inactive: -38.2%
CC(C)c1ccc(NC(=O)CC2Oc3ccccc3NC2=O)cc1 (stereo not given) | inactive: -24.2%
O=C(OC1C[C@H]2CC[C@@H](C1)[N+]21CCCC1)C(O)(c1ccccc1)c1ccccc1 (stereo not given in full) | inactive: -10.4%
COc1ccccc1CCNC(=O)CCc1c(C)c2cc3c(C)c(C)oc3cc2oc1=O | inactive: -5.04%
Cc1ccc(Cl)cc1NC(=O)CN1C(=O)COc2ccc(S(=O)(=O)N3CCCCCC3)cc21 | inactive: -22%
Cc1ccc(NC(=O)C(=O)NCC(c2ccc3c(c2)OCO3)N2CCN(c3ccccc3)CC2)cc1 (stereo not given) | inactive: -5%
O=C(c1cccs1)c1cn(CCOc2ccccc2Cl)c2ccccc12 | inactive: -24.7%
CCN(C(=O)C(Cc1ccccc1)NS(=O)(=O)c1cccc2nsnc12)c1ccccc1 (stereo not given) | inactive: -10.2%
CCN(CC)CC1CCCCN1CC(=O)N1c2ccccc2C(=O)Nc2cccnc21 (stereo not given) | inactive: -1.99%
COc1ccc(CC(=O)NCC(c2cccs2)S(=O)(=O)c2ccc(Cl)cc2)cc1 (stereo not given) | inactive: -17.3%
Cc1c(C(=O)N2CCCC2)oc2c1-c1nn(CC(=O)NC(C)c3ccccc3)cc1CC2 (stereo not given) | inactive: -37.8%
CCC(C(=O)Nc1cc(OC)ccc1OC)n1c(C)c2cnn(-c3ccccc3)c(=O)c2c1C (stereo not given) | inactive: -22.9%
Cc1cc(F)ccc1NC(=O)c1ccc2nc(Cc3ccccc3)oc2c1 | inactive: -15.8%
COc1ccc(-n2ccn(CC(=O)NCc3ccc(C)cc3)c(=O)c2=O)cc1OC | inactive: -6.08%
Cc1ccc(S(=O)(=O)NCCc2nnc3ccc(SCc4ccc(F)cc4)nn23)cc1 | inactive: -33.5%
Cc1ccc2oc(C(=O)Nc3cccc(-c4nc5ccccc5s4)c3)c(C)c2c1 | inactive: 22.2%
Cc1ccc(Nc2ncc(C(=O)N3CCN(c4cccc(Cl)c4)CC3)c3ccccc23)cc1Cl | inactive: -18.2%
COc1ccccc1Cn1cc(C(=O)c2ccc(F)cc2)c(=O)c2cc3c(cc21)OCO3 | inactive: -3.85%
COc1ccccc1C(=O)c1cn(CC(=O)Nc2ccccc2F)c2nc(C)ccc2c1=O | inactive: -9.88%
Cc1ccc(C)c(N2CCN(C(=O)c3cc(S(=O)(=O)N4CCC(C)CC4)cn3C)CC2)c1 | inactive: -39.2%
COc1ccc(-c2noc(N3CCC(C(=O)N(C)c4cc(Cl)ccc4OC)CC3)n2)cc1 | inactive: -70.8%
COc1ccc(CCNC(=O)CCc2cn(Cc3ccc(C)cc3)c3ccccc23)c(OC)c1OC | inactive: -31.9%
CCOc1cc2[nH]c(=O)n(CCCCC(=O)N3CCN(c4ccccc4)CC3)c(=O)c2cc1OCC | inactive: -14%
